Measurements as given in the supplement of paper PMC7125110.
± gives the standard error. Variants at the background level are over-represented here.

B1: glmS ribozyme (parent)
chain: AUAAAAGCGCCAGAACUACAGAAAUGUAGUUGACGAGGAGGAGGUUUAUCGAAUUUUCGGCGGAUGCCUCCAAA

Experiments:
Conditions in all cases: with glucosamine-6-phosphate
[1] = variants of: B1; assay: self-cleavage kobs at 640 uM GlcN6P; higher = faster cleavage; RNA array
Method in brief: (§1)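 Weighted Michaelis–Menten fits across concentrations supplied kcat and KM, based on kobs from one- or two-exponential decay fits to normalised per-tile medians. The data came from barcoded ribozyme variants transcribed in situ by E. coli RNA polymerase on sequenced MiSeq chips and tracked at 37 °C by a hybridised Cy3 probe. Glucosamine-6-phosphate (40 μM to 10 mM) in HEPES/KCl/Mg(OAc)2 buffer was flowed in.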

[2] = variants of: B1; assay: self-cleavage kobs at 2500 uM GlcN6P; higher = faster cleavage; RNA array
Method in brief: as §1

[3] = variants of: B1; assay: self-cleavage kobs at 160 uM GlcN6P; higher = faster cleavage; RNA array
Method in brief: as §1

[4] = variants of: B1; assay: self-cleavage kobs at 10000 uM GlcN6P; higher = faster cleavage; RNA array
Method in brief: as §1

| Variant | self-cleavage kobs at 640 uM GlcN6P [1] | self-cleavage kobs at 2500 uM GlcN6P [2] | self-cleavage kobs at 160 uM GlcN6P [3] | self-cleavage kobs at 10000 uM GlcN6P [4] |
| --- | --- | --- | --- | --- |
| G29U U30C A52G | < 1e-05 s⁻¹ | < 1e-05 s⁻¹ | – | – |
| U30A A36C U57A | < 1e-05 s⁻¹ | – | – | – |
| U30A A48C C58U G59C | < 1e-05 s⁻¹ | – | – | – |
| U30A A48C G51U C71G | < 1e-05 s⁻¹ | < 1e-05 s⁻¹ | – | – |
| U30A A48G C50U G62U C71U | < 1e-05 s⁻¹ | – | – | – |
| U30A A48G G51A G60U | < 1e-05 s⁻¹ | < 1e-05 s⁻¹ | – | – |
| U30A C34A G35A A39U | < 1e-05 s⁻¹ | – | – | – |
| U30A C34G A42C | < 1e-05 s⁻¹ | < 1e-05 s⁻¹ | < 1e-05 s⁻¹ | – |
| U30A C67G | 5.03e-05 ± 5.9e-06 s⁻¹ | 9.16e-05 ± 8.4e-06 s⁻¹ | – | 0.00015 ± 1.3e-05 s⁻¹ |
| U30A C71G | 0.000371 ± 0.00016 s⁻¹ | 0.000129 ± 5.8e-05 s⁻¹ | – | 0.00032 ± 7.6e-05 s⁻¹ |
| U30A G38C A39U | < 1e-05 s⁻¹ | – | – | – |
| U30A G43U U55A | < 1e-05 s⁻¹ | < 1e-05 s⁻¹ | < 1e-05 s⁻¹ | – |
| U30A G44A G51U G66U | < 1e-05 s⁻¹ | – | – | – |
| U30A G51C | < 1e-05 s⁻¹ | – | – | < 1e-05 s⁻¹ |
| U30A G62U C67G | < 1e-05 s⁻¹ | – | – | – |
| U30A U46C A52U G59A | < 1e-05 s⁻¹ | < 1e-05 s⁻¹ | < 1e-05 s⁻¹ | – |
| U30A U46C A64C | < 1e-05 s⁻¹ | – | – | < 1e-05 s⁻¹ |
| U30A U47A G60U G63U | < 1e-05 s⁻¹ | – | – | – |
| U30A U55C C68G | < 1e-05 s⁻¹ | < 1e-05 s⁻¹ | – | – |
| U30A U65G | 0.000275 ± 8.9e-05 s⁻¹ | 0.000614 ± 0.00016 s⁻¹ | 6.8e-05 ± 2.4e-05 s⁻¹ | 0.00141 ± 0.00016 s⁻¹ |
| U30C A36G U45A | < 1e-05 s⁻¹ | – | – | – |
| U30C A39U A52U | < 1e-05 s⁻¹ | – | – | – |
| U30C A64G | 0.000122 ± 1.4e-05 s⁻¹ | 0.000267 ± 3e-05 s⁻¹ | 4.88e-05 ± 1.1e-05 s⁻¹ | 0.000293 ± 4.9e-05 s⁻¹ |
| U30C C34A | < 1e-05 s⁻¹ | – | – | < 1e-05 s⁻¹ |
| U30C C34U U57A | < 1e-05 s⁻¹ | – | – | – |
| U30C C58G | < 1e-05 s⁻¹ | – | – | – |
| U30C C58G C68A | 9.15e-05 ± 3.9e-05 s⁻¹ | 7.09e-05 ± 1.9e-05 s⁻¹ | – | – |
| U30C C58U C70U | 5.85e-05 ± 2.1e-05 s⁻¹ | 3.95e-05 ± 1.9e-05 s⁻¹ | – | – |
| U30C C61G | < 1e-05 s⁻¹ | – | – | < 1e-05 s⁻¹ |
| U30C C67U | 3.56e-05 ± 7.9e-06 s⁻¹ | 8.48e-05 ± 1.8e-05 s⁻¹ | 3.33e-05 ± 1.3e-05 s⁻¹ | 9.05e-05 ± 1e-05 s⁻¹ |
